Data as given in PubChem BioAssay AID902 (National Center for Advancing Translational Sciences (NCATS), 2007).
In all, about 130,000 compounds went through this assay and about 1,900 (1.5%) were called active. Inconclusive means that the source gave no clear call. Such entries were picked first, then a sample of the others. Calls follow the shape of the dose curve; as a rule, active = well fitted cell-killing curve with a large enough effect; inconclusive = small, poorly fitted or top-dose-only effect; inactive = no such curve, though single readings can be large or run the other way. A potency beside an inconclusive call is a rough fit, not a confirmed value.

experiment: qHTS Screen for Compounds that Selectively Target Cancer Cells with p53 Mutations: Cytotoxicity of p53ts Cells at the Nonpermissive Temperature; conditions: H1299-p53A138V viability at 39C, ATP luminescence, 24 h; activity change, negative = cell killing: at 46.1 µM (top of the series); also: nearly all actives have a fitted effect of over 55% in size
% is scaled to controls: 0 for no effect and ±100 for the full control effect; potency is read from the fitted curve at half-maximal effect; tags tell the direction and shape of the fitted curve.

Row | Structure (SMILES) | Potency | activity change, negative = cell killing
1 | COc1ccc(-c2nnc(NC(=O)c3ccc(S(=O)(=O)N4CCCc5ccccc54)cc3)o2)cc1 | inconclusive: 2.51 µM [cytotoxic, partial curve] | 
2 | COc1ccc(-c2nnc(SC(C)C(=O)O)o2)cc1 (stereo not given) | inconclusive: 7.94 µM [cytotoxic, partial curve, poor fit] | 
3 | Cc1[nH]c2ccccc2c1C1(O)C(=O)N(Cc2ccccc2)c2ccc(Cl)cc21 (stereo not given) | inconclusive: 15.8 µM [cytotoxic, single point] | 
4 | CCc1ccc(NC(=O)Cn2c(=O)n(CCCC(=O)NCc3ccc4c(c3)OCO4)c(=O)c3ccccc32)cc1 | inconclusive: 12.6 µM [cytotoxic, single point] | 
5 | COc1ccccc1NC(=O)CSc1nnc(-c2ccc(C)cc2)o1 | active: 6.31 µM | 
6 | COc1ccc(N2CCN(C(=O)C(C)n3nc(C)c4sc5ccccc5c4c3=O)CC2)cc1 (stereo not given) | active: 10 µM | 
7 | Cc1ccc2[nH]c(=O)c(CN(CCCN3CCOCC3)C(=O)Nc3cccc(Cl)c3)cc2c1 | inconclusive: 25.1 µM [cytotoxic, single point] | 
8 | CCCCOc1ccc(C(=O)Nc2cccc(C)n2)cc1 | active: 15.8 µM | 
9 | Cc1cc(O)c(C(C)C)cc1CN1CCCCC1 |  | inactive: -6.91% [at 9.22 µM]
10 | NC(=O)c1ccccc1N/C=C/C(=O)c1ccccc1 | active: 10 µM | 
11 | O=C(NCCCN1CCN(c2cccc(Cl)c2)CC1)c1ccc2nc(Cc3ccccc3)oc2c1 | inconclusive: 7.94 µM [cytotoxic, partial curve] | 
12 | CC1=C(c2ccc(C)c(C)c2)S(=O)(=O)N(Cc2ccc(C(=O)Nc3cc(F)ccc3F)cc2)C1=O | inconclusive: 6.31 µM [cytotoxic, full curve] | 
13 | Oc1cc2c(cc1O)C1c3ccc(O)c(O)c3OCC1(O)C2 (stereo not given) | inconclusive: 31.6 µM [cytotoxic, single point] | 
14 | CN(c1cccc(NC(=O)Nc2cccc(Cl)c2)c1)S(C)(=O)=O | inactive | 
15 | Cc1ccccc1Nc1nc(N)c(C(=O)c2ccccc2Cl)s1 | inactive | 
16 | CCCCOc1ccccc1C1CC(=O)Nc2cc(C)c(C)cc21 (stereo not given) | active: 10 µM | 
17 | CC1(C)CCCC(C)(C)N1CC(O)COCCOc1ccc(Br)cc1 (stereo not given) | active: 4.47 µM | 
18 | COc1ccccc1CNC(=O)c1cccc(C)c1[N+](=O)[O-] | inactive | 
19 | COc1ccc(-n2ccnc2SCC(=O)Nc2ccc3c(c2)OCO3)cc1 |  | inconclusive: -35.4% [cytotoxic]
20 | Cc1cccc(N2CCN(C(=O)CS(=O)(=O)c3cccc4nsnc34)CC2)c1C | inconclusive: 25.1 µM [cytotoxic, partial curve, poor fit] | 
21 | Cc1c(C(=O)NCc2cccnc2)oc2ccc(S(=O)(=O)N3CCCCC3)cc12 | inconclusive: 11.2 µM [cytotoxic, single point] | 
22 | CN(C)C(=O)COc1ccc2ccc(=O)oc2c1 | inconclusive: 31.6 µM [cytotoxic, single point] | 
23 | CS(=O)(=O)N1CCc2cc(C(=O)N3CCCCC3)ccc21 | inactive | 

Row | Structure (SMILES) | Potency | activity change, negative = cell killing
24 | COc1cc(C(=O)Nc2ccc(NC(=O)c3ccc(C(C)(C)C)cc3)cc2)cc(OC)c1OC | inconclusive: 6.31 µM [cytotoxic, partial curve, poor fit] | 
25 | Cc1nnc(SCCn2c(N3CCN(c4ccccc4)CC3)nc3c2c(=O)n(C)c(=O)n3C)s1 | inconclusive: 31.6 µM [cytotoxic, single point] | 
26 | COc1ccc(NC(=O)c2cc3ccccc3o2)c(OC)c1 | inconclusive: 15.8 µM [cytotoxic, partial curve] | 
27 | Cc1nc2cc(NC(=O)Nc3ccc(N4CCOCC4)cc3)ccc2n1C | inactive | 
28 | CCOc1ccc(NC(=O)Nc2cc(C)ccc2OC)cc1 | inconclusive: 15.8 µM [cytotoxic, single point] | 
29 | Cc1cccc(CS(=O)(=O)c2ncc(Cl)c(C(=O)Nc3nnc(C(C)C)s3)n2)c1 | active: 5.01 µM | 
30 | O=C(COc1ccccc1Cl)Nc1ccc(-c2nc3ccccc3s2)cc1 | inconclusive: 15.8 µM [cytotoxic, single point] | 
31 | Cc1ccccc1C(=O)N1CCN(c2ccc(NC(=O)c3ccco3)cc2Cl)CC1 | inconclusive: 31.6 µM [cytotoxic, single point] | 
32 | Cc1ccc(C(C)C)c(OCc2ccc(C(=O)N/N=C/c3ccc(O)cc3O)cc2)c1 | inconclusive: 3.16 µM [cytotoxic, full curve, poor fit] | 
33 | CC12C(=O)OC(=O)C1(C)C1CCC2O1 (stereo not given) | inactive | 
34 | COc1ccc(NC(=O)c2ccc(NC(=O)N3CCSc4ncccc43)cc2)cc1 | inconclusive: 6.31 µM [cytotoxic, partial curve] | 
35 | COCCn1c(CNC(=O)c2cccc(C)c2)nc2cccnc21 | inconclusive: 0.0079 µM [cytotoxic, full curve, poor fit] | 
36 | CCOC(=O)c1cccc(NC(=O)Cn2c(=O)c3cccn3c3ccccc32)c1 | inconclusive: 7.94 µM [cytotoxic, partial curve] | 
37 | CCCCNC(=O)C(CC)Sc1nc2ccccc2c(=O)n1Cc1ccco1 (stereo not given) | inactive | 
38 | CCCSc1oc(-c2ccco2)nc1S(=O)(=O)c1ccccc1 | inactive | 
39 | Cn1c(=O)n(Cc2ccccc2)c(=O)c2c1nc1n2CCN1c1ccccc1 | inconclusive: 3.55 µM [cytotoxic, partial curve] | 
40 | Cc1cccn2cc(-c3cccc(NC(=O)C(C)C)c3)nc12 | inconclusive: 31.6 µM [cytotoxic, single point] | 
41 | CCn1c(=O)cc(OCC(=O)N2CCN(c3ccc(C)cc3)C(C)C2)c2ccccc21 (stereo not given) | inconclusive: 20 µM [cytotoxic, single point] | 
42 | CCOc1cc(OCC)cc(C(=O)Nc2cccc(-c3nc4ccccc4[nH]3)c2)c1 | inconclusive: 15.8 µM [cytotoxic, partial curve] | 
43 | COc1ccc(-c2ccc(Nc3ccc(C(=O)N4CCOCC4)cc3)nn2)cc1OC | inactive | 
44 | Nc1nc2c(s1)CCc1c-2cnn1-c1ccccc1 | active: 10 µM | 
45 | c1csc(-c2nn3c(Cn4cnc5ccccc54)nnc3s2)c1 | inactive | 
